Counter-ions that a name gives are not always drawn. The list shows a part of the results. Single values are uncertain, as repeats are few or missing.
tested on: HCT116-GFP; experiment: HCT116-GFP viability (GFP intensity) relative to untreated control, monoculture; higher = less cancer cell killing; settings: culture: HCT116-GFP monoculture; 10 µM; 72 h
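Further: viability estimated indirectly by image-based GFP quantification with live-cell imaging of the constitutively GFP-expressing human colorectal cancer line, no immune cells added.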

SMILES | HCT116-GFP viability
Nc1c2ccccc2nc2ccccc12 [Aminacrine] | 5.65%
N[C@@H](Cc1cc(I)c(Oc2ccc(O)c(I)c2)c(I)c1)C(=O)O [Liothyronine] | 93.8%
CS(=O)(=O)OCCCCOS(C)(=O)=O [Busulfan] | 106%
Cc1c(NC(=O)c2cccnc2)c(=O)n(-c2ccccc2)n1C [Nifenazone] | 101%
CC(C)NC[C@@H](O)COc1ccc(CC(N)=O)cc1 [(R)-(+)-Atenolol] | 103%
NS(=O)(=O)c1cc2c(cc1C(F)(F)F)NCNS2(=O)=O [Hydroflumethiazide] | 93.6%
CC[C@@H]1C(=O)OC[C@@H]1Cc1cncn1C [Pilocarpine nitrate] | 101%
CO[C@@H]1[C@@H](O[C@@H]2O[C@H](C)[C@@H](O[C@H]3C[C@@](C)(O)[C@@H](OC(=O)CC(C)C)[C@H](C)O3)[C@H](N(C)C)[C@H]2O)[C@@H](CC=O)C[C@@H](C)[C@@H](O)/C=C/C=C/C[C@@H](C)OC(=O)C[C@H]1OC(C)=O [Josamycin] | 80.5%
CC(=O)CC(c1ccccc1)c1c(O)c2ccccc2oc1=O (stereo unspecified) [Warfarin] | 104%
CCN(CC)CC(=O)Nc1c(C)cccc1C [Lidocaine hydrochloride] | 109%
c1ccc2c(CC3=NCCN3)cccc2c1 [Naphazoline hydrochloride] | 86.6%
CC(=O)OCC(=O)[C@@]12OC(C)(C)O[C@@H]1C[C@H]1[C@@H]3C[C@H](F)C4=CC(=O)C=C[C@]4(C)[C@@]3(F)[C@@H](O)C[C@@]12C [Fluocinonide] | 99.5%
C=CC1=C(C(=O)O)N2C(=O)[C@@H](NC(=O)/C(=N\O)c3csc(N)n3)[C@H]2SC1 [Cefdinir] | 91%
Cc1cn([C@H]2C=C[C@@H](CO)O2)c(=O)[nH]c1=O [Stavudine] | 104%
CC(=O)NS(=O)(=O)c1ccc(N)cc1 [Sulfacetamide sodic hydrate] | 95.4%
COc1cccc2c1C(=O)c1c(O)c3c(c(O)c1C2=O)C[C@@](O)(C(C)=O)C[C@@H]3O[C@H]1C[C@H](N)[C@H](O)[C@H](C)O1 [Daunorubicin hydrochloride] | 6.12%
CCCOc1cc(N)ccc1C(=O)OCCN(CC)CC [Propoxycaine hydrochloride] | 90.7%
OC(Cn1cncn1)(Cn1cncn1)c1ccc(F)cc1F [Fluconazole] | 95.6%

SMILES | HCT116-GFP viability
NCCc1c[nH]cn1 [Histamine dihydrochloride] | 101%
CC[N+](C)(C)c1cccc(O)c1 [Edrophonium chloride] | 102%
Cc1cn[nH]c1 [Fomepizole] | 92.5%
CC[N+](C)(CC)CCOC(=O)C1c2ccccc2Oc2ccccc21 [Methantheline bromide] | 86.8%
CCCCN(CCCC)CCCOC(=O)c1ccc(N)cc1 [Butacaine] | 91.5%
Cc1ccc(C(=O)c2ccc(CC(=O)O)n2C)cc1 [Tolmetin sodium salt dihydrate] | 85.9%
COC(=O)Nc1nc2cc(C(=O)c3cccs3)ccc2[nH]1 [Nocodazole] | 10.4%
CC(=O)OCC(=O)[C@@]1(O)CC[C@H]2[C@@H]3CCC4=CC(=O)CC[C@]4(C)[C@@]3(F)[C@@H](O)C[C@@]21C [Fludrocortisone acetate] | 94.2%
C=CC(N)CCC(=O)O (stereo unspecified) [Vigabatrin hydrochloride] | 92.2%
NS(=O)(=O)c1cc(C2(O)NC(=O)c3ccccc32)ccc1Cl (stereo unspecified) [Chlorthalidone] | 90.9%
CCN[C@H]1CN(CCCOC)S(=O)(=O)c2sc(S(N)(=O)=O)cc21 [Brinzolamide] | 84.9%
Cc1ncc(C[n+]2csc(CCO)c2C)c(N)n1 [Thiamine hydrochloride] | 109%
CC(C)c1c(C(=O)Nc2ccccc2)c(-c2ccccc2)c(-c2ccc(F)cc2)n1CC[C@@H](O)C[C@@H](O)CC(=O)O [Atorvastatin] | 66.6%
CC(=O)OCC(=O)[C@@]1(O)CC[C@H]2[C@@H]3CCC4=CC(=O)CC[C@]4(C)[C@H]3[C@@H](O)C[C@@]21C [Cortisol acetate] | 104%
CCCc1cc(C(N)=S)ccn1 [Prothionamide] | 97.3%
CC(=O)S[C@@H]1CC2=CC(=O)CC[C@]2(C)[C@H]2CC[C@@]3(C)[C@@H](CC[C@@]34CCC(=O)O4)[C@H]12 [Spironolactone] | 84.8%
CC(Cc1cccc(C(F)(F)F)c1)NCCOC(=O)c1ccccc1 (stereo unspecified) [Benfluorex] | 104%
NNCCc1ccccc1 [Phenelzine sulfate] | 103%

— the supplement of paper PMC9938546
